The values below come from publication PMC9911399, “Two distinct binding modes provide the RNA-binding protein RbFox with extraordinary sequence specificity”.

Where a chain is given by its changes, count along the chain named. The list shows a part of the results.

T1: RBFOX1 RRM (Homo sapiens, UniProt Q9NWB1 109-208)
T1 sequence: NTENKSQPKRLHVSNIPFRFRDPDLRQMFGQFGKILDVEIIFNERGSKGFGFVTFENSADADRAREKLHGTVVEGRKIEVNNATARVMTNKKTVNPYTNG

B1: UAGUUAU (DNA:RNA)
RNA: GGGAGACCGGAAUUCAGAUUGUCCUAGUUAUUUAAAUCCCGUCGUAGCCACCA
DNA 1: CAATCTGAATTCCGGTCTCCC
DNA 2: TGGTGGCTACGACGGGATT
B2: UAGAUUC (DNA:RNA)
RNA: B1 RNA with U28A, A30U, U31C
DNA 1: CAATCTGAATTCCGGTCTCCC
DNA 2: TGGTGGCTACGACGGGATT
B3: GUACUCU (DNA:RNA)
RNA: B1 RNA with U25G, A26U, G27A, U28C, A30C
DNA 1: CAATCTGAATTCCGGTCTCCC
DNA 2: TGGTGGCTACGACGGGATT
B4: CAUUCGG (DNA:RNA)
RNA: B1 RNA with U25C, G27U, U29C, A30G, U31G
DNA 1: CAATCTGAATTCCGGTCTCCC
DNA 2: TGGTGGCTACGACGGGATT
B5: UUCGUGC (DNA:RNA)
RNA: B1 RNA with A26U, G27C, U28G, A30G, U31C
DNA 1: CAATCTGAATTCCGGTCTCCC
DNA 2: TGGTGGCTACGACGGGATT
B6: CACGAGU (DNA:RNA)
RNA: B1 RNA with U25C, G27C, U28G, U29A, A30G
DNA 1: CAATCTGAATTCCGGTCTCCC
DNA 2: TGGTGGCTACGACGGGATT
B7: UGCUAAA (DNA:RNA)
RNA: B1 RNA with A26G, G27C, U29A, U31A
DNA 1: CAATCTGAATTCCGGTCTCCC
DNA 2: TGGTGGCTACGACGGGATT
B8: AUUAUGC (DNA:RNA)
RNA: B1 RNA with U25A, A26U, G27U, U28A, A30G, U31C
DNA 1: CAATCTGAATTCCGGTCTCCC
DNA 2: TGGTGGCTACGACGGGATT
B9: CCUACCG (DNA:RNA)
RNA: GGGAGACCGGAAUUCAGAUUGUCCCCUACCGUUAAAUCCCGUCGUAGCCACCA
DNA 1: CAATCTGAATTCCGGTCTCCC
DNA 2: TGGTGGCTACGACGGGATT

This assay addresses T1, RBFOX1 RRM. As to the kind of experiment: EMSA; HiTS-Eq, 1 nM pool, 10 min; buffer printed only for the single-RNA assays: 10 mM Tris pH 7.5, 150 mM NaCl, 3.4 mM EDTA, 0.001% NP-40, 30 C. Conditions: tags: His6 N-terminal (pET28a); label: 5' 32P. A digest of the protocol: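 Relative association constants, normalised to the cognate motif, were derived by comparing read counts of each RNA species with those of the control reaction. The RNA sequenced was the free fraction, separated by 8% native PAGE after a 10 min equilibration in 50 µL of 1 nM 5′-radiolabelled RNA (7 randomized nucleotides) with increasing concentrations of purified wild-type or mutant RbFox RRM.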
In general terms: A gel shift assay detects complexes by their altered migration in electrophoresis.
As to B1, the binding signal is 0.00794 KA relative to UGCAUGU.

On to B2, for which the binding signal was 0.0117 KA relative to UGCAUGU.

Take B3: the binding signal is 0.0101 KA relative to UGCAUGU.

As to B4, the binding signal was 0.00582 KA relative to UGCAUGU.

Turning to B5, the binding signal was 0.0243 KA relative to UGCAUGU.

For B6, the binding signal is 0.00553 KA relative to UGCAUGU.

On to B7, for which the binding signal was 0.0104 KA relative to UGCAUGU.

For the molecule B8, the binding signal is 0.0074 KA relative to UGCAUGU.

For B9, the binding signal was 0.00129 KA relative to UGCAUGU.
